Results reported in PubChem BioAssay AID1347073 (National Center for Advancing Translational Sciences (NCATS), 2019).
Out of some 45,000 compounds screened, about 200 (0.44%) were called active. About 7% were inconclusive and are not listed. The call rests on the fitted dose curve; in most records, active means well fitted activation curve with a large enough effect; inconclusive means small, poorly fitted or top-dose-only effect; inactive means no such curve, though single readings can be large or run the other way. The list shows a part of the results.

Assay: qHTS of TDP-43 Inhibitors: NCGC Sytravon Library Screen; further: 0% is about no effect; nearly all actives have a fitted effect of over 55% in size
Details: yeast TDP-43 toxicity rescue, BacTiter-Glo growth, 24 h; series mostly up to 46.1 µM; growth rescue (activation): at the top concentration
Procedure, shortened: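 TDP-43-expressing yeast, pregrown in raffinose, seeded at OD600 0.02 in galactose medium with compound for 24 hr at 30 deg C. Growth read by BacTiter-Glo luminescence, so rescue of toxicity appears as activation.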

Compound | growth rescue (activation)
OCCNCc1ccc(-c2ccccc2)cc1 | inactive: -15.9%
Cc1ccc(C2(c3noc(CN(C)CCO)n3)CCCC2)cc1 | inactive: 1.69%
COc1ccc2c(c1)C(C)CC(C)(C)N2C(=O)CSc1ncn[nH]1 (stereo unspecified) | inactive: 5.62%
CC(C)c1ccccc1OCCNS(C)(=O)=O | inactive: 4.99%
CCN(CC)S(=O)(=O)c1ccc2c(c1)N(CC(=O)NCc1ccc(F)cc1)C(=O)CO2 | inactive: 0.577%
Cc1nc2nc(C)c(NS(=O)(=O)c3ccc(Cl)s3)c(=O)n2[nH]1 | inactive: 2.93%
Cc1cc(C(=O)Nn2c(-c3ccncc3)nc3ccccc3c2=O)ccc1[N+](=O)[O-] | inactive: 14.1%
COc1ccccc1NC(=O)CSc1nc2nc(C)cc(C)c2c(=O)[nH]1 | inactive: -12.9%
CCC(C)n1c(SCC(=O)NCCc2ccc(S(N)(=O)=O)cc2)nc2ccsc2c1=O (stereo unspecified) | inactive: 4.04%
COc1ccccc1NS(=O)(=O)c1cccc(C(=O)N/N=C/c2ccccc2OCC(=O)O)c1 | inactive: 22.1%
Cc1cc(C)c(C)c(S(=O)(=O)N[C@@H](C)C(=O)OCc2cc(=O)n3cc(Br)ccc3n2)c1C | inactive: -4.55%
CC(Oc1ccc(Cl)cc1Cl)C(=O)NCCC1=CCCCC1 (stereo unspecified) | inactive: 15.2%
CCN(CC(=O)NCc1ccc(F)cc1)C(=O)C1CCN(S(=O)(=O)c2ccc(C(C)C)cc2)CC1 | inactive: 3.52%
CC(C)NC(=O)NC(=O)COC(=O)c1ncc(Cl)c(Cl)c1Cl | inactive: 22.4%
CC(C)(C)NC(=O)CCN(/N=C/c1ccc([N+](=O)[O-])o1)C1=NS(=O)(=O)c2ccccc21 | inactive: 7.2%
CN(CP(=O)(O)CN(C)S(C)(=O)=O)S(C)(=O)=O | inactive: -15.8%
COc1cccc(NC(=O)CCNS(=O)(=O)c2cccc3nonc23)c1 | inactive: 8.83%
CC(=O)C1=C(O)C(=O)N(c2ccccn2)C1c1ccccc1[N+](=O)[O-] (stereo unspecified) | inactive: -10%
CC1CCCCN1C(=O)CCS(=O)(=O)Cc1ccccc1 (stereo unspecified) | inactive: 8.52%
CCCCNC(=O)N1CCN(Cc2cccc(F)c2)CC1 | inactive: -4.62%
Cc1nc2nc(SCC(=O)NCCCN3CCCCCC3)nn2c(C)c1Cc1ccccc1 | inactive: -5.7%
O=C(COc1ccc(Cl)cc1Cl)Nc1ccccc1NS(=O)(=O)c1cccs1 | inactive: -2.87%

Compound | growth rescue (activation)
COc1ccc(S(=O)(=O)N2CCOCC2)cc1C(=O)Nc1ccc2c(c1)OCO2 | inactive: 21.5%
COc1cccc(NC(=O)C(C)SCc2ccccc2)c1 (stereo unspecified) | inactive: 25.6%
Cc1ccc2ccc(S(=O)(=O)NCc3ccccn3)cc2c1 | inactive: 23.3%
CC(C)(C)CC(C)(C)NC(=O)c1ccc2snnc2c1 | inactive: 8.3%
O=C(N/N=C/c1cccnc1)c1cccc(N2CCCC2=O)c1 | inactive: -7.7%
CC1CN(c2ccccc2)CCN1Cc1nc(Cc2ccccc2)no1 (stereo unspecified) | inactive: 22.9%
O=c1c([N+](=O)[O-])c[nH]c2ccccc12 | inactive: 2.86%
CC(=O)Nc1ccc(S(=O)(=O)NCC(=O)OCC(=O)NC(=O)C2CCCCC2)cc1 | inactive: 10%
O=C(Nc1ccc(Br)cn1)c1ccc(Cl)s1 | inactive: 5.56%
CC(=O)N1CCN(C(=O)C2CCN(S(=O)(=O)c3ccccc3C(F)(F)F)CC2)CC1 | inactive: 3.9%
Cc1ccc(NC(=O)CSc2nc(N)c3c4c(sc3n2)CSC(C)(C)C4)cc1 | inactive: 13%
CC(C)Cn1cc(C(=O)NCCCN2CCC(C)CC2)c2c3ccccc3n(C)c2c1=O | inactive: 14.1%
O=C(COc1ccc(S(=O)(=O)N2CCOCC2)cc1)NCC1CCCO1 (stereo unspecified) | inactive: 2.49%
COc1ccc(NS(=O)(=O)c2ccc(Cl)c(C(=O)O)c2)cc1S(=O)(=O)N1CCCCC1 | inactive: 7.67%
COc1ccc(N2CCN(C(=O)CSc3nnc(-c4ccco4)n3C)CC2)cc1 | inactive: -4.63%
Cc1cccc(N2CC(C(=O)Nc3ccc(S(=O)(=O)N4CCOCC4)cc3)CC2=O)c1 (stereo unspecified) | inactive: 2.27%
CC(CC(=O)Nc1ccccc1)NCCCN1CCCC1=O (stereo unspecified) | inactive: 4.79%
COc1ccc(S(=O)(=O)Nc2c(C)c(C)cc3c2ncn3C)cc1 | inactive: -3.04%
CCCCn1c(N)c(N(CC)C(=O)c2ccc(Cl)c(Cl)c2)c(=O)[nH]c1=O | inactive: 1.52%
C=CCn1c(-c2ccccc2OC)n[nH]c1=S | inactive: -22.8%
CCc1ccc(NC(=O)c2sc3nc(C)nc(N4CCN(c5ccccn5)CC4)c3c2C)cc1 | inactive: 9.98%
O=C(NCCc1ccccc1)C(=O)Nc1nccs1 | inactive: 21.3%

Compound | growth rescue (activation)
Brc1ccc(-c2cn3c(n2)SCC3)cc1 | inactive: 4.11%
CS(=O)(=O)N(CC(=O)NCC1CCCO1)c1cc(Cl)ccc1Cl (stereo unspecified) | inactive: -22.8%
CCOC(=O)C1=NOC(CN(c2ccccc2)S(=O)(=O)c2ccc(Cl)cc2)C1 (stereo unspecified) | inactive: 21.9%
CCOc1cc(NC(=S)NCCCOC)c(OCC)cc1NC(=O)c1cccs1 | inactive: 23.2%
Cn1c(=O)c2c(nc(-n3ccnc3)n2C)n(C)c1=O | inactive: 1.93%
Cc1cc(C)c(C(=O)Nc2cccc(F)c2)c(Cl)n1 | inactive: -3.71%
CCOC(=O)C1CCN(C(=S)Nc2cc(C)ccc2C)CC1 | inactive: 16.8%
OCCCN=c1cc(-c2ccccc2)oc2ccc(Cl)cc12 | inactive: 27.5%
Cc1ccc(C)c(N(CC(=O)NC(C)(C)C)C(=O)CNC(=O)c2cccs2)c1 | inactive: -3.65%
O=C(NCC1CCCO1)C(c1ccc(F)cc1)N(Cc1ccc2c(c1)OCO2)C(=O)c1ccc(CN2CCOCC2)o1 (stereo unspecified) | inactive: 12.8%
O=C1c2ccccc2C(=O)N1CCCCSc1nc2ccccc2c(=O)n1CCCN1CCOCC1 | inactive: -3.44%
CCCc1cc2c(=O)c(-c3cscn3)c(C(=O)OCC)oc2cc1O | inactive: 16.6%
Cc1ccc(C(=O)NC2CCN(CC(=O)Nc3ccccc3Cl)CC2)cc1 | inactive: -6.68%
NS(=O)(=O)c1cccc(NC(=O)Nc2ccc(Cl)cc2)c1 | inactive: 7.65%
COC(=O)C1CCN(C(=O)COc2ccc(S(=O)(=O)N3CCOCC3)cc2Cl)CC1 | inactive: -4.29%
O=C(CCN1CCCCC1=O)NC1CCCN(Cc2ccc(Cl)cc2)C1 (stereo unspecified) | inactive: 3.48%
Cc1ccc(NC(=O)c2ccc(OC(=O)C(C)Oc3ccc(Cl)cc3C)cc2)cc1 (stereo unspecified) | inactive: 11.2%
Cc1oc2ccc(NS(=O)(=O)c3ccc(F)cc3)cc2c1C(=O)O | inactive: -1.21%
O=C(c1cc(-c2cccc(Cl)c2)on1)N1CCc2ccccc2C1 | inactive: 5.02%
CCCOC1CCCN(C(=O)c2ccc(OC3CCN(C(=O)CCOC)CC3)cc2)C1 (stereo unspecified) | inactive: 3.29%
CC(C)C1Cc2c(C#N)c(N)n(C)c(=S)c2CO1 (stereo unspecified) | inactive: 16.5%
Cc1cc(NC(=S)Nc2cccnc2)ccc1Br | inactive: 7.41%

Compound | growth rescue (activation)
CCOC(=O)C1CCN(C(=O)CSc2n[nH]c(=O)[nH]c2=O)CC1 | inactive: -9.28%
CC1CCN(Cc2nnnn2-c2cccc([N+](=O)[O-])c2)CC1 | inactive: 22.8%
CC(C)C(=O)Nc1cccc(-c2cn3ccccc3n2)c1 | inactive: -3.41%
COc1ccc(CCCC(=O)N/N=C/c2cccc(OC)c2O)cc1C | inactive: 11.2%
COc1ccc(/C=N/Nc2ncnc3c2[nH]c2ccccc23)c(OC)c1OC | inactive: 2.64%
CS(=O)(=O)N(CC(=O)NCCSCc1ccccc1)c1ccccc1Cl | inactive: 2.72%
CC(=O)c1ccc(OCc2cc(C(=O)N(C)C(C)c3ccon3)no2)cc1 (stereo unspecified) | inactive: 15.6%
O=C(CCN1C(=O)c2cccc3cccc(c23)C1=O)NCC1CCCO1 (stereo unspecified) | inactive: 8.63%
COc1cc2nc(N3CCN(c4cc(C)ccc4C)CC3)nc(N)c2cc1OC | inactive: 8.18%
O=C(NC1CCS(=O)(=O)C1)c1ccc(S(=O)(=O)N2CCCC2)cc1 (stereo unspecified) | inactive: 0.748%
O=C(Nc1ccc2c(c1)C(=O)OC2)c1ccc(C(F)(F)F)cc1 | inactive: 9.35%
CCCNC(=O)C1(C)CCCN(C(=O)c2sccc2C)C1 (stereo unspecified) | inactive: -0.922%
O=P(COCCOCCOCCOCP(=O)(c1ccccc1)c1ccccc1)(c1ccccc1)c1ccccc1 | inactive: 3.37%
NC1=NC(=O)CC(C(=O)Nc2cccc3ccccc23)S1 (stereo unspecified) | inactive: -1.44%
COc1cccc(CN(C)C(=O)c2cc(S(=O)(=O)NC3CCCCC3)ccc2C)c1 | inactive: 14.3%
CCN1CCN(c2ccc(S(=O)(=O)N3CCCC3)cn2)CC1 | inactive: 10.7%
CCOC(=O)Nc1nnc(Cc2ccc(Cl)c(Cl)c2)s1 | inactive: 3.54%
CCCn1c(SC(C)C(=O)NC2CCCC2)n[nH]c1=O (stereo unspecified) | inactive: 15.4%
COCCNc1ncnc2c1ncn2[C@H]1CN(Cc2cccs2)C[C@@H](CO)O1 | inactive: 2.32%
Cc1cc(S(=O)(=O)N2CCCC(C(=O)Nc3ccc(C(=O)O)cc3)C2)ccc1Cl (stereo unspecified) | inactive: -8.11%
COc1ccc2nc(SCC(=O)NCC3CCCO3)c(C#N)cc2c1 (stereo unspecified) | inactive: 6.92%
COc1ccc(-c2[nH]ncc2C(=O)NCc2cccc(Cl)c2)cc1 | inactive: 23.3%

Compound | growth rescue (activation)
Cc1ccc(NCC(=O)N/N=C\c2ccc[nH]2)cc1 | inactive: 14.2%
CCc1sc(C(=O)NCCc2ccc(S(N)(=O)=O)cc2)cc1C | inactive: -25.5%
N#Cc1ccc(C(=O)NN2C(=O)NC3(CCCCC3)C2=O)cc1 | inactive: -2.28%
CC(=O)c1ccc(N2CCN(C(=O)CCNC(=O)Cn3ccc4ccccc4c3=O)CC2)cc1 | inactive: -1.96%
Cc1ccccc1C(=O)N1CCC(C(=O)OCc2ccccn2)CC1 | inactive: 11.9%
NC(c1ccccc1)c1csc(Nc2ccc(C(F)(F)F)cn2)n1 (stereo unspecified) | inactive: 27.8%
CN(CC(=O)Nc1ccc(S(=O)(=O)N2CCCC2)cc1)Cc1ccc(Cl)cc1Cl | inactive: -5.15%
CCOc1c(S(=O)(=O)NC2CC(C)(C)NC(C)(C)C2)ccc(Cl)c1Cl | inactive: 5.33%
CCC(Sc1nc2cc(OC)c(OC)cc2c(=O)n1Cc1ccc(OC)cc1)C(=O)NCCOC (stereo unspecified) | inactive: -3.1%
CCC1CCCCN1CCN1C(=O)C2C(C(=O)Nc3ccc(OC)cc3)C3C=CC2(O3)C1C(=O)NC1CCCCC1 (stereo unspecified) | inactive: -6.06%
CNc1cncc(-c2ccccc2CO)n1 | inactive: 11.3%
CC(C)Nc1ccc(Nc2ccnc3cc4ccccc4cc23)cc1 | inactive: 1.81%
NC(=O)COC(=O)c1ccc2c(c1)S(=O)(=O)c1ccccc1C2=O | inactive: -9.68%
COc1ccc(-n2c(=S)[nH]c3cc(C(=O)Nc4ccc(F)cc4)ccc3c2=O)c(OC)c1 | inactive: 2.9%
O=C(CCN1CCCCC1)Nc1ccccc1 | inactive: -6.75%
COc1ccc(S(=O)(=O)NCC2CCCN(C(=O)c3sccc3C)C2)cc1 (stereo unspecified) | inactive: 0.301%
O=C1CCCC(O)=C1N=Nc1cccc(S(=O)(=O)N2CCOCC2)c1 | inactive: 16.6%
CCN1CCN(C(=O)c2ccc3c(c2)N(Cc2ccccc2)C(=O)c2ccccc2S3(=O)=O)CC1 | inactive: 0.945%
